The numbers were not newly measured in publication PMC11006913, which cites them from elsewhere.

Some of the results follow.

Holding throughout (details): PBM; conditions not shown; double strand, one strand shown; scale: upbm affinity estimate (log intensity, higher = more binding, comparable within an allelic series)
Series [1] addresses HOXD13 I297V (Homo sapiens) (UniProt P35453).
Series [2] concerns the target HOXD13 I322L (Homo sapiens) (UniProt P35453).
The target of series [3] is HOXD13 N298S (Homo sapiens) (UniProt P35453).
The target of series [4] is HOXD13 Q325K (Homo sapiens) (UniProt P35453).
Series [5] deals with HOXD13 Q325R (Homo sapiens) (UniProt P35453).
Series [6] has as its target HOXD13 R306W (Homo sapiens) (UniProt P35453).
For series [7], the target named is HOXD13 S316C (Homo sapiens) (UniProt P35453).

As for GCCATAAA [8-mer GCCATAAA], the binding signal in series [1] is 12.2; in series [2], 11.2; in series [3], 12.4; in series [4], 10.4; in series [5], 10.9; in series [6] it was 11.3. Besides, the binding signal in series [7] was 12.1.
As to AAGGTGGG [8-mer AAGGTGGG], the binding signal in series [1] is 9.56; in series [2], 9.52; in series [3] it was 9.56; in series [4] it was 9.32; in series [5], 9.51; in series [6], 9.44. In series [7], the binding signal was 9.55.
Regarding ATTTAATA [8-mer ATTTAATA], the binding signal in series [1] was 12.4; in series [2], 11.9; in series [3], 12.7; in series [4], 12.1; in series [5] it was 12.3; in series [6], 12. Also, in series [7], the binding signal is 12.3.
Consider CCGCCTCC [8-mer CCGCCTCC], for which the binding signal was 9.4 in series [1]; 9.35 in series [2]; 9.25 in series [3]; 9.36 in series [4]; 9.29 in series [5]; 9.32 in series [6]. Besides, in series [7], the binding signal was 9.35.
Turning to GGATGGCC [8-mer GGATGGCC], the binding signal was 9.62 in series [1]; 9.35 in series [2]; 9.52 in series [3]; 9.36 in series [4]; 9.31 in series [5]; 9.37 in series [6]. Besides, the binding signal in series [7] is 9.48.
As for TTGTAAAA [8-mer TTGTAAAA], the binding signal in series [1] is 12.3; in series [2] it was 12.5; in series [3] it was 12.5; in series [4], 10.6; in series [5], 11.3; in series [6], 11.6. Further, the binding signal in series [7] is 12.2.
Turning to GTTTTATA [8-mer GTTTTATA], the binding signal was 12.4 in series [1]; 11.4 in series [2]; 12.6 in series [3]; 12.6 in series [4]; 12.6 in series [5]; 12.1 in series [6]. In series [7], the binding signal was 12.4.
For GCTTGGCC [8-mer GCTTGGCC], the binding signal was 9.54 in series [1]; 9.27 in series [2]; 9.2 in series [3]; 9.37 in series [4]; 9.29 in series [5]; 9.38 in series [6]. Besides, in series [7], the binding signal is 9.29.
CCTGTAAA [8-mer CCTGTAAA]: the binding signal is 12.2 in series [1]; 12.1 in series [2]; 12.4 in series [3]; 10.2 in series [4]; 10.5 in series [5]; 11.2 in series [6]. The binding signal in series [7] was 11.9.
Consider CCGGCTTC [8-mer CCGGCTTC], for which the binding signal was 9.37 in series [1]; 9.29 in series [2]; 9.38 in series [3]; 9.42 in series [4]; 9.34 in series [5]; 9.37 in series [6]. The binding signal in series [7] was 9.43.
For CCACAGGG [8-mer CCACAGGG], the binding signal in series [1] is 9.33; in series [2], 9.42; in series [3], 9.36; in series [4], 9.7; in series [5] it was 9.56; in series [6], 9.45. In addition, the binding signal in series [7] was 9.23.
As to CATATAAA [8-mer CATATAAA], the binding signal in series [1] is 12.5; in series [2], 11.3; in series [3] it was 12.7; in series [4] it was 12.4; in series [5] it was 12.5; in series [6], 11.9. Besides, the binding signal in series [7] is 12.4.
CGCAGCCG [8-mer CGCAGCCG]: the binding signal in series [1] is 9.23; in series [2] it was 9.31; in series [3], 9.15; in series [4], 9.28; in series [5] it was 9.36; in series [6] it was 9.41. The binding signal in series [7] was 9.34.
For the sequence CGGCCTCC [8-mer CGGCCTCC], the binding signal in series [1] is 9.43; in series [2], 9.41; in series [3] it was 9.35; in series [4] it was 9.42; in series [5] it was 9.32; in series [6] it was 9.45. The binding signal in series [7] is 9.43.
With CGGAGGGC [8-mer CGGAGGGC], the binding signal was 9.49 in series [1]; 9.43 in series [2]; 9.39 in series [3]; 9.45 in series [4]; 9.47 in series [5]; 9.51 in series [6]. Also, in series [7], the binding signal is 9.46.
Take CTAATAAA [8-mer CTAATAAA]: the binding signal was 12.9 in series [1]; 11.6 in series [2]; 13.1 in series [3]; 11 in series [4]; 12.7 in series [5]; 12.3 in series [6]. Moreover, the binding signal in series [7] was 12.9.
Consider CGAGGGTC [8-mer CGAGGGTC], for which the binding signal in series [1] is 9.24; in series [2], 9.3; in series [3], 9.41; in series [4], 9.08; in series [5] it was 9.33; in series [6], 9.23. Further, the binding signal in series [7] is 9.32.
With GCAGTAAA [8-mer GCAGTAAA], the binding signal in series [1] is 12.2; in series [2], 12.1; in series [3], 12.4; in series [4] it was 10.5; in series [5] it was 10.7; in series [6], 10.9. In series [7], the binding signal was 12.
As to CGGCCTGC [8-mer CGGCCTGC], the binding signal in series [1] was 9.18; in series [2], 9.34; in series [3], 9.24; in series [4], 9.17; in series [5] it was 9.21; in series [6] it was 9.27. Also, the binding signal in series [7] was 9.27.
Regarding GTTTATGA [8-mer GTTTATGA], the binding signal was 12.4 in series [1]; 11.2 in series [2]; 12.6 in series [3]; 10.8 in series [4]; 11.5 in series [5]; 11.6 in series [6]. In addition, in series [7], the binding signal was 12.3.
For the sequence GACGCTGC [8-mer GACGCTGC], the binding signal is 9.32 in series [1]; 9.37 in series [2]; 9.14 in series [3]; 9.26 in series [4]; 9.41 in series [5]; 9.34 in series [6]. In series [7], the binding signal was 9.32.
Take CCCCTCAA [8-mer CCCCTCAA]: the binding signal in series [1] is 9.54; in series [2] it was 9.46; in series [3], 9.33; in series [4], 9.7; in series [5], 9.27; in series [6], 9.45. Besides, the binding signal in series [7] was 9.34.
Consider AGGCACGC [8-mer AGGCACGC], for which the binding signal in series [1] was 9.44; in series [2] it was 9.37; in series [3], 9.32; in series [4] it was 9.26; in series [5], 9.39; in series [6], 9.37. Further, in series [7], the binding signal is 9.49.
CGCTTTCC [8-mer CGCTTTCC]: the binding signal in series [1] is 9.28; in series [2] it was 9.19; in series [3], 9.21; in series [4] it was 9.52; in series [5], 9.5; in series [6] it was 9.34. In addition, the binding signal in series [7] is 9.26.
Take GTCCGGAC [8-mer GTCCGGAC]: the binding signal in series [1] was 9.8; in series [2], 9.68; in series [3], 9.75; in series [4], 9.86; in series [5], 9.91; in series [6], 9.73. Moreover, in series [7], the binding signal is 9.82.
For the sequence CCCCAGAG [8-mer CCCCAGAG], the binding signal in series [1] is 9.26; in series [2], 9.18; in series [3], 9.12; in series [4], 9.52; in series [5], 9.28; in series [6] it was 9.3. Further, the binding signal in series [7] was 9.29.
On to CCCATTAA [8-mer CCCATTAA], for which the binding signal was 12.3 in series [1]; 11.5 in series [2]; 12.5 in series [3]; 10.6 in series [4]; 11.1 in series [5]; 11.3 in series [6]. Moreover, the binding signal in series [7] is 12.
For CTATAAAA [8-mer CTATAAAA], the binding signal in series [1] was 12.9; in series [2] it was 11.8; in series [3], 13.1; in series [4], 12.1; in series [5], 12; in series [6], 12.6. Besides, in series [7], the binding signal is 12.9.
Consider CCTATTAA [8-mer CCTATTAA], for which the binding signal is 12.5 in series [1]; 11.7 in series [2]; 12.7 in series [3]; 11.4 in series [4]; 11.7 in series [5]; 11.8 in series [6]. Further, in series [7], the binding signal is 12.3.
In the case of TCGTTAAA [8-mer TCGTTAAA], the binding signal is 12.5 in series [1]; 12.6 in series [2]; 12.6 in series [3]; 10.7 in series [4]; 11.3 in series [5]; 11.5 in series [6]. Moreover, the binding signal in series [7] was 12.3.
On to AGCCTTGC [8-mer AGCCTTGC], for which the binding signal in series [1] was 9.53; in series [2], 9.59; in series [3], 9.47; in series [4] it was 9.63; in series [5], 9.32; in series [6] it was 9.48. Also, the binding signal in series [7] was 9.49.
In the case of TATAAAAA [8-mer TATAAAAA], the binding signal in series [1] is 12.3; in series [2], 11.2; in series [3] it was 12.5; in series [4], 12.4; in series [5], 12.3; in series [6] it was 11.8. In addition, the binding signal in series [7] is 12.2.
As for ATTTATTG [8-mer ATTTATTG], the binding signal in series [1] is 12.8; in series [2] it was 11.6; in series [3], 13; in series [4] it was 11; in series [5], 11.8; in series [6], 12.2. The binding signal in series [7] was 12.7.
Consider CGGGGCGC [8-mer CGGGGCGC], for which the binding signal was 9.33 in series [1]; 9.37 in series [2]; 9.19 in series [3]; 9.32 in series [4]; 9.18 in series [5]; 9.25 in series [6]. The binding signal in series [7] was 9.22.
